# Test results published in the supplement of paper PMC8728848.
# Some of the results follow.
# B1: Tectonin 2 (Laccaria bicolor) (protein)
# chain: MPWKGISGSLSRISAGSVTNVWGVNAANNIYRYTGDDAKPWVQIPGALTDIGAAADGTVWGVNAAGNIYRYVWDSNHWTQIKGALKRISAGSRTNVWGVNAGGAIYRYTGDDANPWVQIPGVLSDIGAGADGTVWGVNAAGEIYRYTGDQGDPNHWVKIPGALSAISAGIKTNVWGVNSANNIYTSTGDDKNPWLGIGGSLVDIGAGTDGVVWGVNAGGGIYRWIRD
# How the values were obtained:
# Assay in all cases: glycan array binding signal (z-score within array); higher = stronger binding
# Details in all cases: glycan notation: IUPAC condensed, linker removed
# Fuc(a1-2)Gal = target: Fuc(a1-2)Gal
# Method in brief: (§1)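 Glycan array data came from 3228 arrays in the Consortium for Functional Glycomics database, and only arrays with an available protein sequence were kept. Glycan names were put into IUPAC-condensed notation, and columns mapping to the same glycan were averaged. The binding signal is a within-array Z-score, averaged across arrays of one protein sequence run at different concentrations or buffers and across linkers. A negative Z-score can be read as non-binding.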
# Fuc(a1-2)Gal(b1-3)GalNAc = target: Fuc(a1-2)Gal(b1-3)GalNAc
# Method in brief: as §1
# [1] = target: Fuc(a1-2)Gal(b1-3)GalNAc(a1-3)[Fuc(a1-2)]Gal(b1-4)Glc
# Method in brief: as §1
# [2] = target: Fuc(a1-2)Gal(b1-3)GalNAc(a1-3)[Fuc(a1-2)]Gal(b1-4)GlcNAc
# Method in brief: as §1
# [3] = target: Fuc(a1-2)Gal(b1-3)GalNAc(b1-3)Gal
# Method in brief: as §1
# [4] = target: Fuc(a1-2)Gal(b1-3)GalNAc(b1-3)Gal(a1-4)Gal(b1-4)Glc
# Method in brief: as §1
# [5] = target: Fuc(a1-2)Gal(b1-3)GalNAc(b1-4)[Neu5Ac(a2-3)]Gal(b1-4)Glc
# Method in brief: as §1
# Fuc(a1-2)Gal(b1-3)GlcNAc = target: Fuc(a1-2)Gal(b1-3)GlcNAc
# Method in brief: as §1
# [6] = target: Fuc(a1-2)Gal(b1-3)GlcNAc(b1-2)Man(a1-3)[Fuc(a1-2)Gal(b1-3)GlcNAc(b1-2)Man(a1-6)]Man(b1-4)GlcNAc(b1-4)GlcNAc
# Method in brief: as §1
# [7] = target: Fuc(a1-2)Gal(b1-3)GlcNAc(b1-2)Man(a1-3)[Fuc(a1-2)Gal(b1-3)GlcNAc(b1-2)Man(a1-6)]Man(b1-4)GlcNAc(b1-4)[Fuc(a1-6)]GlcNAc
# Method in brief: as §1
# [8] = target: Fuc(a1-2)Gal(b1-3)GlcNAc(b1-3)Gal(b1-4)Glc
# Method in brief: as §1
# [9] = target: Fuc(a1-2)Gal(b1-3)GlcNAc(b1-3)GalNAc
# Method in brief: as §1
# [10] = target: Fuc(a1-2)Gal(b1-3)GlcNAc(b1-3)[Fuc(a1-3)[Gal(b1-4)]GlcNAc(b1-6)]Gal(b1-4)Glc
# Method in brief: as §1
# [11] = target: Fuc(a1-2)Gal(b1-3)GlcNAc(b1-3)[Gal(b1-4)GlcNAc(b1-6)]Gal(b1-4)Glc
# Method in brief: as §1
# [12] = target: Fuc(a1-2)Gal(b1-3)[Fuc(a1-4)]GlcNAc
# Method in brief: as §1
# [13] = target: Fuc(a1-2)Gal(b1-3)[Fuc(a1-4)]GlcNAc(b1-2)Man(a1-3)[Fuc(a1-2)Gal(b1-3)[Fuc(a1-4)]GlcNAc(b1-2)Man(a1-6)]Man(b1-4)GlcNAc(b1-4)GlcNAc
# Method in brief: as §1
# [14] = target: Fuc(a1-2)Gal(b1-3)[Fuc(a1-4)]GlcNAc(b1-3)[Fuc(a1-3)[Gal(b1-4)]GlcNAc(b1-6)]Gal(b1-4)Glc
# Method in brief: as §1
# [15] = target: Fuc(a1-2)Gal(b1-3)[Fuc(a1-4)]GlcNAc(b1-3)[Gal(b1-4)GlcNAc(b1-6)]Gal(b1-4)Glc
# Method in brief: as §1
# Fuc(a1-2)Gal(b1-4)Glc = target: Fuc(a1-2)Gal(b1-4)Glc
# Method in brief: as §1
# Fuc(a1-2)Gal(b1-4)Glc6S = target: Fuc(a1-2)Gal(b1-4)Glc6S
# Method in brief: as §1
# Fuc(a1-2)Gal(b1-4)GlcNAc = target: Fuc(a1-2)Gal(b1-4)GlcNAc
# Method in brief: as §1
# [16] = target: Fuc(a1-2)Gal(b1-4)GlcNAc(b1-2)Man(a1-3)[Fuc(a1-2)Gal(b1-4)GlcNAc(b1-2)Man(a1-6)]Man(b1-4)GlcNAc(b1-4)GlcNAc
# Method in brief: as §1
# [17] = target: Fuc(a1-2)Gal(b1-4)GlcNAc(b1-2)Man(a1-3)[Fuc(a1-2)Gal(b1-4)GlcNAc(b1-2)Man(a1-6)]Man(b1-4)GlcNAc(b1-4)[Fuc(a1-6)]GlcNAc
# Method in brief: as §1
# [18] = target: Fuc(a1-2)Gal(b1-4)GlcNAc(b1-2)[Fuc(a1-2)Gal(b1-4)GlcNAc(b1-4)]Man(a1-3)[Fuc(a1-2)Gal(b1-4)GlcNAc(b1-2)Man(a1-6)]Man(b1-4)GlcNAc(b1-4)GlcNAc
# Method in brief: as §1
# [19] = target: Fuc(a1-2)Gal(b1-4)GlcNAc(b1-3)Gal(b1-4)GlcNAc
# Method in brief: as §1
# [20] = target: Fuc(a1-2)Gal(b1-4)GlcNAc(b1-3)Gal(b1-4)GlcNAc(b1-3)Gal(b1-4)GlcNAc
# Method in brief: as §1
# [21] = target: Fuc(a1-2)Gal(b1-4)GlcNAc(b1-3)GalNAc
# Method in brief: as §1
# [22] = target: Fuc(a1-2)Gal(b1-4)GlcNAc6S
# Method in brief: as §1
# [23] = target: Fuc(a1-2)Gal(b1-4)[Fuc(a1-3)]GlcNAc
# Method in brief: as §1
# [24] = target: Fuc(a1-2)Gal(b1-4)[Fuc(a1-3)]GlcNAc(b1-2)Man(a1-3)[Fuc(a1-2)Gal(b1-4)[Fuc(a1-3)]GlcNAc(b1-2)Man(a1-6)]Man(b1-4)GlcNAc(b1-4)GlcNAc
# Method in brief: as §1
# [25] = target: Fuc(a1-2)Gal(b1-4)[Fuc(a1-3)]GlcNAc(b1-2)[Fuc(a1-2)Gal(b1-4)[Fuc(a1-3)]GlcNAc(b1-4)]Man(a1-3)[Fuc(a1-2)Gal(b1-4)[Fuc(a1-3)]GlcNAc(b1-2)Man(a1-6)]Man(b1-4)GlcNAc(b1-4)GlcNAc
# Method in brief: as §1
# [26] = target: Fuc(a1-2)Gal(b1-4)[Fuc(a1-3)]GlcNAc(b1-3)Gal(b1-4)[Fuc(a1-3)]GlcNAc
# Method in brief: as §1
# [27] = target: Fuc(a1-2)Gal(b1-4)[Fuc(a1-3)]GlcNAc(b1-3)Gal(b1-4)[Fuc(a1-3)]GlcNAc(b1-3)Gal(b1-4)[Fuc(a1-3)]GlcNAc
# Method in brief: as §1
# [28] = target: Fuc(a1-2)Gal(b1-4)[Fuc(a1-3)]GlcNAc(b1-3)GalNAc
# Method in brief: as §1
# Fuc(a1-2)Gal6S(b1-4)Glc = target: Fuc(a1-2)Gal6S(b1-4)Glc
# Method in brief: as §1
# [29] = target: Fuc(a1-2)Gal6S(b1-4)Glc6S
# Method in brief: as §1
# [30] = target: Fuc(a1-2)Gal6S(b1-4)GlcNAc
# Method in brief: as §1
# Fuc(a1-2)[Gal(a1-3)]Gal = target: Fuc(a1-2)[Gal(a1-3)]Gal
# Method in brief: as §1
# [31] = target: Fuc(a1-2)[Gal(a1-3)]Gal(b1-3)GlcNAc
# Method in brief: as §1
# [32] = target: Fuc(a1-2)[Gal(a1-3)]Gal(b1-3)GlcNAc(b1-2)Man(a1-3)[Fuc(a1-2)[Gal(a1-3)]Gal(b1-3)GlcNAc(b1-2)Man(a1-6)]Man(b1-4)GlcNAc(b1-4)GlcNAc
# Method in brief: as §1
# [33] = target: Fuc(a1-2)[Gal(a1-3)]Gal(b1-3)GlcNAc(b1-3)GalNAc
# Method in brief: as §1
# [34] = target: Fuc(a1-2)[Gal(a1-3)]Gal(b1-4)Glc
# Method in brief: as §1
# [35] = target: Fuc(a1-2)[Gal(a1-3)]Gal(b1-4)GlcNAc
# Method in brief: as §1
# [36] = target: Fuc(a1-2)[Gal(a1-3)]Gal(b1-4)GlcNAc(b1-2)Man(a1-3)[Fuc(a1-2)[Gal(a1-3)]Gal(b1-4)GlcNAc(b1-2)Man(a1-6)]Man(b1-4)GlcNAc(b1-4)GlcNAc
# Method in brief: as §1
# [37] = target: Fuc(a1-2)[Gal(a1-3)]Gal(b1-4)GlcNAc(b1-2)Man(a1-3)[Fuc(a1-2)[Gal(a1-3)]Gal(b1-4)GlcNAc(b1-2)Man(a1-6)]Man(b1-4)GlcNAc(b1-4)[Fuc(a1-6)]GlcNAc
# Method in brief: as §1
binder,measurement,setting,value
B1,glycan array binding signal (z-score),Fuc(a1-2)Gal,-0.247
same,glycan array binding signal (z-score),Fuc(a1-2)Gal(b1-3)GalNAc,-0.064
same,glycan array binding signal (z-score),[1],-0.319
same,glycan array binding signal (z-score),[2],-0.382
same,glycan array binding signal (z-score),[3],-0.174
same,glycan array binding signal (z-score),[4],-0.416
same,glycan array binding signal (z-score),[5],-0.139
same,glycan array binding signal (z-score),Fuc(a1-2)Gal(b1-3)GlcNAc,-0.235
same,glycan array binding signal (z-score),[6],-0.066
same,glycan array binding signal (z-score),[7],-0.069
same,glycan array binding signal (z-score),[8],-0.337
same,glycan array binding signal (z-score),[9],-0.105
same,glycan array binding signal (z-score),[10],-0.175
same,glycan array binding signal (z-score),[11],-0.495
same,glycan array binding signal (z-score),[12],-0.307
same,glycan array binding signal (z-score),[13],0.389
same,glycan array binding signal (z-score),[14],-0.5
same,glycan array binding signal (z-score),[15],-0.176
same,glycan array binding signal (z-score),Fuc(a1-2)Gal(b1-4)Glc,-0.214
same,glycan array binding signal (z-score),Fuc(a1-2)Gal(b1-4)Glc6S,-0.349
same,glycan array binding signal (z-score),Fuc(a1-2)Gal(b1-4)GlcNAc,0.108
same,glycan array binding signal (z-score),[16],-0.029
same,glycan array binding signal (z-score),[17],-0.416
same,glycan array binding signal (z-score),[18],-0.021
same,glycan array binding signal (z-score),[19],-0.123
same,glycan array binding signal (z-score),[20],0.032
same,glycan array binding signal (z-score),[21],-0.32
same,glycan array binding signal (z-score),[22],-0.326
same,glycan array binding signal (z-score),[23],-0.194
same,glycan array binding signal (z-score),[24],0.23
same,glycan array binding signal (z-score),[25],0.014
same,glycan array binding signal (z-score),[26],-0.116
same,glycan array binding signal (z-score),[27],0.134
same,glycan array binding signal (z-score),[28],0.847
same,glycan array binding signal (z-score),Fuc(a1-2)Gal6S(b1-4)Glc,0.025
same,glycan array binding signal (z-score),[29],1.47
same,glycan array binding signal (z-score),[30],0.279
same,glycan array binding signal (z-score),Fuc(a1-2)[Gal(a1-3)]Gal,0.54
same,glycan array binding signal (z-score),[31],-0.07
same,glycan array binding signal (z-score),[32],0.495
same,glycan array binding signal (z-score),[33],-0.223
same,glycan array binding signal (z-score),[34],-0.179
same,glycan array binding signal (z-score),[35],0.816
same,glycan array binding signal (z-score),[36],9.62
same,glycan array binding signal (z-score),[37],0.092
